Experimental data: PubChem BioAssay AID624202 (National Center for Advancing Translational Sciences (NCATS), 2012)
In all, about 380,000 compounds went through this assay and about 4,000 (1.1%) were called active. The inconclusive results got no clear call from the source; some entries with a clear call stand among them for comparison. Calls follow the shape of the dose curve; as a rule, active = well fitted activation curve with a large enough effect; inconclusive = small, poorly fitted or top-dose-only effect; inactive = no such curve, though single readings can be large or run the other way. A potency beside an inconclusive call is a rough fit, not a confirmed value.

Assay: qHTS Assay to Identify Small Molecule Activators of BRCA1 Expression; also: nearly all actives have a fitted effect of over 80% in size
Settings: MCF7-BRCA1-FFLuc reporter, luminescence, 48 h; activation: at 46.1 µM (top of the series), scaled: vehicle 0%, 10 µM genistein 100% unless noted
Outline: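 Cells: MCF7-BRCA1-FFLuc, 2000/well. Exposure: 48 h, 37 °C, 5% CO2. Read: luminescence, 15 min post-substrate. Controls: genistein 10 microM (maximal activation), DMSO (neutral).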
Tags tell the direction and shape of the fitted curve.

SMILES | activation | Potency
Cc1ccc(OCCSCc2nc3ccccc3[nH]2)cc1 | inactive: -24% | –
CCOC(=O)c1c(C)[nH]c(C(=O)NNC(=O)c2ccccc2)c1C | – | inconclusive: 1.58 µM [activator, partial curve, poor fit]
Cc1nonc1C1CCCN1C(=O)c1cc(COc2ccc(F)cc2Cl)on1 (stereo not given) | – | inconclusive: 15.8 µM [activator, partial curve, poor fit]
CC(=O)/C=C/c1ccccc1O | inactive: -6.81% | –
COc1cc(C2C3=C(COC3=O)Oc3cc4c(cc32)OCO4)cc(OC)c1OC(C)=O (stereo not given) | inconclusive: -99.8% [activator] | –
CCOC(=O)c1cnn(-c2ncnc3c2oc2ccccc23)c1N | – | active: 3.16 µM
COCCn1c(C)cc(C(=O)CSc2nc3ccccc3o2)c1C | inconclusive: -31.4% [activator] | –
Cn1c(-c2ccc(F)cc2)cnc1SCC(=O)Nc1ccccc1N1CCOCC1 | – | inconclusive: 10 µM [activator, partial curve, poor fit]
N#Cc1ccccc1NC(=O)c1ccc2c(c1)OCO2 | – | active: 3.16 µM
Cc1c(C(=O)OCC(C)(C)CN(C)C)oc2ccccc12 | – | inconclusive: 17.8 µM [activator, single point]
COc1ccc(Nc2ccc3ccccc3c2)cc1 | – | inconclusive: 14.1 µM [activator, partial curve, poor fit]
CCn1c(-c2ccccc2)csc1=Nc1ccc(O)cc1 | – | inconclusive: 2.24 µM [activator, full curve, poor fit]
Cn1c(=O)c2cc(NC(=O)CCc3cccnc3)ccc2n1Cc1ccc(F)cc1 | inactive: 1.29% | –
CCOC(=O)c1ccc(NC(=O)c2nn(C)cc2Br)cc1 | – | active: 5.01 µM
O=C(Nc1ccc(Br)cc1)C1Cc2ccccc2O/C1=N\O (stereo not given) | – | inconclusive: 11.2 µM [activator, partial curve, poor fit]
COC(=O)Cc1c(C)c2ccc(OCC(=O)N3CCCC3)c(C)c2oc1=O | inactive: -11.2% | –
O=C(NN=C1CCCC1)c1n[nH]c2c1CCCC2 | – | inconclusive: 2.51 µM [activator, partial curve, poor fit]
O=C(NCc1ccc(F)cc1)c1c2c(nc3ccccc13)CCC2 | – | active: 14.1 µM
COc1ccc(-c2nnc(-c3ccc4ccccc4c3)o2)cc1 | – | inconclusive: 2.82 µM [activator, full curve, poor fit]
Cc1cccc(-n2ncc3c(NCc4ccccn4)ncnc32)c1 | – | inconclusive: 11.2 µM [activator, partial curve, poor fit]
CCc1ccc(-c2nc(SCC(=O)c3c(N)n(C4CC4)c(=O)[nH]c3=O)n[nH]2)cc1 | – | inconclusive: 12.6 µM [activator, partial curve, poor fit]
CC(/C=N/n1c(-c2ccc(C)cc2)n[nH]c1=S)=C\c1ccco1 | inactive: -44% | –
O=C(c1cnsn1)N1CCC(CO)(Cc2cccc(F)c2)CC1 | – | inconclusive: 14.1 µM [activator, partial curve, poor fit]

SMILES | activation | Potency
NC(=O)CN1CCN(CCN2C(=O)c3cccc4cccc(c34)C2=O)CC1 | – | inconclusive: 35.5 µM [activator, single point]
C=CCC1(CC=C)CCCN1C(=O)c1ccc2oc(CCCC)nc2c1 | – | inconclusive: 8.91 µM [activator, partial curve, poor fit]
O=C(Nc1ccccc1F)NC1CCCCCCC1 | – | active: 3.55 µM
BrC(=C\c1ccccc1)/C=N/N1CCN(c2ccccc2)CC1 | inactive: 104% | –
CCc1sc(C(=O)N2CCN(c3ncccn3)CC2)cc1Br | inactive: 0.653% | –
O=C(CSc1nc2ccccc2[nH]1)c1cccs1 | – | inconclusive: 0.316 µM [activator, full curve, poor fit]
CC(=O)c1cccc(NC(=O)NCc2ccccn2)c1 | – | inconclusive: 2.24 µM [activator, full curve, poor fit]
Cc1cc(-c2nc3ncccc3o2)ccc1NC(=S)NC(=O)c1ccco1 | inactive: -6.17% | –
Cc1noc(-c2ccc(N(C)Cc3ccccc3)c([N+](=O)[O-])c2)n1 | – | inconclusive: 12.6 µM [activator, partial curve, poor fit]
CCOC(=O)c1cnc2cc3c(cn2c1=O)CCCC3 | – | inconclusive: 2.51 µM [activator, partial curve, poor fit]
CCN(CC)c1ccc2cc(-c3nnc(-c4ccccc4)o3)c(=O)oc2c1 | – | active: 1.41 µM
CNc1cncc(-c2ccc(OC)cc2)n1 | – | inconclusive: 10 µM [activator, partial curve, poor fit]
CC(Cc1cccs1)NC(=O)Nc1ccc(Cl)cc1 (stereo not given) | – | inconclusive: 2.24 µM [activator, full curve, poor fit]
C=CCC1(CC=C)CCCN1C(=O)c1cc(COc2ccc(F)c(F)c2)on1 | inactive: 0% | –
O=C(CSc1nc2c(oc3ccccc32)c(=O)[nH]1)Nc1cccc(Cl)c1 | – | inconclusive: 10 µM [activator, partial curve, poor fit]
COc1ccc(C(=S)NC2CCCCC2)cc1 | – | inconclusive: 11.2 µM [activator, partial curve, poor fit]
Cc1ccc(C(=O)c2sc3nsc(C)c3c2N)cc1 | – | inconclusive: 0.501 µM [activator, full curve, poor fit]
N=C1/C(=C/c2ccc(OCc3ccccc3F)cc2)C(=O)N=C2SC(CC(=O)N3CCOCC3)=NN12 | – | inconclusive: 2 µM [activator, full curve, poor fit]
CC1CCc2nc(-c3cc4ccc(O)cc4oc3=O)sc2C1 (stereo not given) | – | inconclusive: 2.24 µM [activator, full curve, poor fit]
Cc1ccc(N/N=C(\C#N)C(=N)N2CCCCC2)cc1 | – | inconclusive: 1 µM [activator, full curve, poor fit]
CCN(CCn1cccn1)C(=O)CCc1nnc(-c2ccccc2)o1 | – | inconclusive: 15.8 µM [activator, single point]
COC(=O)c1c(SCC(=O)Nc2ccccc2OC)[nH]c2ccccc2c1=O | inactive: -30.3% | –
